In PMC4336329 (PLoS ONE, 2015):
Among all 310,000 compounds or so, about 14,000 (4.5%) showed an effect of 50% or more. The effect is printed as a negative number. This is one part of the list.

Target: human ether-à-go-go-related gene (hERG) potassium channel (human, UniProt Q12809)
Experiment: primary screen, population patch clamp on CHO cells stably expressing hERG
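Further: peak tail current of the secondary pulse compared with the same well before compound.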

Sequence of human ether-à-go-go-related gene (hERG) potassium channel (Q12809 whole entry, looked up): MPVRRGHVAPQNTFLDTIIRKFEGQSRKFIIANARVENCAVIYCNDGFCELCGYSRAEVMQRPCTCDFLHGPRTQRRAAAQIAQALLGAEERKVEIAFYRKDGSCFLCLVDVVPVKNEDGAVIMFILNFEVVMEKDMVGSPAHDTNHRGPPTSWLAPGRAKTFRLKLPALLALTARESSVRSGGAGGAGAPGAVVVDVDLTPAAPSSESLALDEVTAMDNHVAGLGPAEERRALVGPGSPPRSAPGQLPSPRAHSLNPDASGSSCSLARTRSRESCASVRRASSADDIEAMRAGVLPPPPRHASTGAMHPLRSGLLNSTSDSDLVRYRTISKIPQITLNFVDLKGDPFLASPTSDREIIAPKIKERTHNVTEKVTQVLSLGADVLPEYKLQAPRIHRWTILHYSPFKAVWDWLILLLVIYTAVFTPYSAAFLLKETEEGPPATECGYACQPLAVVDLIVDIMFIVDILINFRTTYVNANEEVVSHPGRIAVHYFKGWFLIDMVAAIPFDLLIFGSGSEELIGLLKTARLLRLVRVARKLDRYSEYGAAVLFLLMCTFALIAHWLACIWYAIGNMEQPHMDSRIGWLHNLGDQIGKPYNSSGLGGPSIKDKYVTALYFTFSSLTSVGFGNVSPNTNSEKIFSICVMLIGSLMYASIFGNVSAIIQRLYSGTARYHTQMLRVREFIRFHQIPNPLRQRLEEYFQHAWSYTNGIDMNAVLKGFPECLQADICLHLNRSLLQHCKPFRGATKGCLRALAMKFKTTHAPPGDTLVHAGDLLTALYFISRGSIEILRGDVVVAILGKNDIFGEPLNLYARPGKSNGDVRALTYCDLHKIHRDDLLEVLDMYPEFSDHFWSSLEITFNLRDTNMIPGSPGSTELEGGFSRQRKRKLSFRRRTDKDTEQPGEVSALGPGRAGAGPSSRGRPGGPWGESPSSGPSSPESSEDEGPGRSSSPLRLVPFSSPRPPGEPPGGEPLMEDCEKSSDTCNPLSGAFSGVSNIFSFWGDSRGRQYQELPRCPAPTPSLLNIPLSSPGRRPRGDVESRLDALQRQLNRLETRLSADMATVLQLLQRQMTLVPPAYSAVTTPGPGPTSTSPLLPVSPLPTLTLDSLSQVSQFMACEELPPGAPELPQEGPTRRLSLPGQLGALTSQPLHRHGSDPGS

Row | Compound | hERG current change (%, negative = inhibition) at 10uM
1 | C[C@H]1CC[C@@]2(O[C@H](CCO)C[C@H](O)[C@H]2O)O1 | 24%
2 | O=C1CSC(c2ccccc2[N+](=O)[O-])N1c1cccc(F)c1 (centres unmarked) | -5.28%
3 | CCOC(=O)N1CCN(Cc2nc(Cc3cccc(F)c3)no2)CC1 | 10.6%
4 | COc1ccc(CC(=O)Nc2ccc(N3CCCCC3)cc2)cc1 | 10.5%
5 | CSc1ncccc1C(=O)OCC(=O)NC1CCS(=O)(=O)C1 (centres unmarked) | 9.4%
6 | CCNC(=S)NNC(=O)c1cccs1 | 24.5%
7 | CCOc1ccccc1N1CC(C(=O)N2CCc3ccccc3C2)CC1=O (centres unmarked) | -19.4%
8 | CCOC(=O)C1(CC2CCCCO2)CCN(Cc2cn[nH]c2-c2cccc(F)c2)CC1 (centres unmarked) | -53.9%
9 | CCc1ccc(NC(=S)N(CCN(C)C)C(C)c2ccncc2)cc1 (centres unmarked) | -37.7%
10 | CN(c1ccccc1C(=O)Nc1cccc([N+](=O)[O-])c1)S(C)(=O)=O | -20%
11 | O=C(c1cccc([N+](=O)[O-])c1)N1CCCC(C(=O)N2CCCCC2)C1 (centres unmarked) | 6.74%
12 | Cc1ccc(OCC(=O)N2CCN(Cc3ccc4c(c3)OCO4)CC2)cc1C | -24.6%
13 | COc1ccc(-c2cc3ccc(OC)cc3cn2)cc1 | 11.9%
14 | CCC(=O)N1CCCc2ccccc21 | 17.6%
15 | CC(C)Oc1ccc(C2CC(=O)NC2=O)cc1 (centres unmarked) | 2.23%
16 | COc1ccc(Cc2nnc(N=Nc3c(O)[nH]c4ccc(Br)cc34)[nH]c2=O)cc1 | 19.7%
17 | CCn1cc(C(=O)N2CCc3ccccc32)c(=O)c2cc(S(=O)(=O)N3CC(C)CC(C)C3)ccc21 (centres unmarked) | -43.8%
18 | COc1ccc(OC)c2c1sc(=NC(=O)C1CC1)n2C | -11.2%
19 | CCOC(=O)c1ccc(NC(=S)N2CCCC2)cc1 | 43.3%
20 | CC(=O)NS(=O)(=O)c1ccc(NC(=O)COc2ccc(C(=O)c3ccccc3)cc2)cc1 | 15.8%
21 | COc1ccc(S(=O)(=O)N(C)c2ccc(C(=O)NCC3CCCO3)cc2)cc1 (centres unmarked) | 2.76%
22 | CC1CN(C(=S)NC2CCCC2)CC(C)O1 (centres unmarked) | 13%

Row | Compound | hERG current change (%, negative = inhibition) at 10uM
23 | CCn1c2ccccc2c2cc(NC(=O)CN(C)CC(=O)Nc3ccc(N4CCOCC4)cc3)ccc21 | 10.5%
24 | CCn1c(=O)c2cc(S(=O)(=O)NCc3ccccc3)ccc2n(CC)c1=O | 4.11%
25 | CCc1ccc(CN(C)CC(O)COc2cccc3ccccc23)cc1 (centres unmarked) | -25.2%
26 | CCc1ccc(CNC(=O)C2CCCN(c3nnc(C)c4c(C)n(-c5ccccc5)nc34)C2)cc1 (centres unmarked) | -15.2%
27 | O=C(NC1CCCC1)C(c1ccccn1)N(C(=O)c1csnn1)C1CCCC1 (centres unmarked) | 2.32%
28 | O=C(NCc1ccco1)C1CCCN(S(=O)(=O)c2cccc3cccnc23)C1 (centres unmarked) | 0.148%
29 | c1csc(CNc2ncnc3nc[nH]c23)c1 | -2.79%
30 | COc1ccccc1N1CCN(C(=O)c2ccc(CN3CCOCC3)cc2)CC1 | 16.7%
31 | CCCCCNC(=O)c1ccc2c(=O)n(CC3CCCO3)c(=S)[nH]c2c1 (centres unmarked) | 4.06%
32 | CCCCCn1c(=O)[nH]c2cc(C(=O)N3CCN(c4ccc(C(C)=O)cc4)CC3)ccc2c1=O | -15.9%
33 | COc1cc(C(=O)N(Cc2ccc(C)o2)C2CCS(=O)(=O)C2)cc(OC)c1OC (centres unmarked) | 14.4%
34 | Cn1c(N2CCOCC2)c(/C=N/O)c2ccccc21 | 7.51%
35 | OCCOCCNc1ncnc2c1c(-c1ccccc1)cn2-c1ccccc1 | -50.6%
36 | Cc1ccc(S(=O)(=O)N2CCN(C(=O)COC(=O)/C=C/c3ccccc3F)CC2)c(C)c1 | 16.8%
37 | COC(=O)[C@]1(CC(C)C)N[C@H](c2ccc(-c3ccc(OC)cc3)cc2)[C@@H]2C(=O)N(C)C(=O)[C@@H]21.O=C(O)C(F)(F)F | 8.93%
38 | COc1ccc(N(CC(O)CN2CCCCC2)S(=O)(=O)c2ccc(C)cc2)cc1 (centres unmarked) | -78.6%
39 | COc1ccccc1NC(=O)C(=O)NCC1CCCN1S(=O)(=O)c1cccs1 (centres unmarked) | -18.9%
40 | COc1cc(NC(=O)COc2ccc(-n3cnnn3)cc2)c(OC)cc1Cl | -22%
41 | Cc1ccc(S(=O)(=O)N2CCN(c3ccccc3)CC2)cc1C | 6.82%
42 | COCCNc1nc2c(c(=O)n(Cc3ccc(OC)cc3)c(=O)n2C)n1C | -4.98%
43 | Oc1ccccc1-c1nnc(COc2ccccc2)o1 | 1.55%
44 | Cc1ccc(CC(=O)Nc2ccc(S(=O)(=O)N3CCOCC3)cc2)cc1C | 4.53%
